Test results from the GPR68 mutational scans of Howard et al. (2025).

B1: GPR68, Q15743 (parent)
chain: MGNITADNSSMSCTIDHTIHQTLAPVVYVTVLVVGFPANCLSLYFGYLQIKARNELGVYLCNLTVADLFYICSLPFWLQYVLQHDNWSHGDLSCQVCGILLYENIYISVGFLCCISVDRYLAVAHPFRFHQFRTLKAAVGVSVVIWAKELLTSIYFLMHEEVIEDENQHRVCFEHYPIQAWQRAINYYRFLVGFLFPICLLLASYQGILRAVRRSHGTQKSRKDQIQRLVLSTVVIFLACFLPYHVLLLVRSVWEASCDFAKGVFNAYHFSLLLTSFNCVADPVLYCFVSETTHRDLARLRGACLAFLTCSRTGRAREAYPLGAPEASGKSGAQGEEPELLTKLHPAFQTPNSPGSGGFPTGRLA

Assays:
[1] = variants of: B1; assay: cAMP reporter score (Enrich2 score, wild type = 0); higher = more signal; HEK293T, FACS bins
[2] = variants of: B1; assay: surface expression score (Enrich2 score, wild type = 0); higher = more signal; HEK293T, FACS bins

Variant | cAMP reporter score ([1]; pH 5.5) | cAMP reporter score ([1]; pH 6) | cAMP reporter score ([1]; pH 6, modulator: ogerin) | cAMP reporter score ([1]; pH 6.5, modulator: ogerin) | surface expression score [2]
MGNITADNSSMSCTIDHTIHQTLAPVVYVTVLVVGFPAVCLSLYFGYLQIKARNELGVYLCNLTVADLFYICSLPFWLQYVLQHDNWSHGDLSCQVCGILLYENIYISVGFLCCISVDRYLAVAHPFRFHQFRTLKAAVGVSVVIWAKELLTSIYFLMHEEVIEDENQHRVCFEHYPIQAWQRAINYYRFLVGFLFPICLLLASYQGILRAVRRSHGTQKSRKDQIQRLVLSTVVIFLACFLPYHVLLLVRSVWEASCDFAKGVFNAYHFSLLLTSFNCVADPVLYCFVSETTHRDLARLRGACLAFLTCSRTGRAREAYPLGAPEASGKSGAQGEEPELLTKLHPAFQTPNSPGSGGFPTGRLA [N39V] | -1.39 | -1.01 | -1.37 | -1.04 | -2.01
MGNITADNSSMSCTIDHTIHQTLAPVVYVTVLVVGFPAWCLSLYFGYLQIKARNELGVYLCNLTVADLFYICSLPFWLQYVLQHDNWSHGDLSCQVCGILLYENIYISVGFLCCISVDRYLAVAHPFRFHQFRTLKAAVGVSVVIWAKELLTSIYFLMHEEVIEDENQHRVCFEHYPIQAWQRAINYYRFLVGFLFPICLLLASYQGILRAVRRSHGTQKSRKDQIQRLVLSTVVIFLACFLPYHVLLLVRSVWEASCDFAKGVFNAYHFSLLLTSFNCVADPVLYCFVSETTHRDLARLRGACLAFLTCSRTGRAREAYPLGAPEASGKSGAQGEEPELLTKLHPAFQTPNSPGSGGFPTGRLA [N39W] | -1.13 | -0.665 | -1.03 | -0.835 | -2.24
MGNITADNSSMSCTIDHTIHQTLAPVVYVTVLVVGFPAYCLSLYFGYLQIKARNELGVYLCNLTVADLFYICSLPFWLQYVLQHDNWSHGDLSCQVCGILLYENIYISVGFLCCISVDRYLAVAHPFRFHQFRTLKAAVGVSVVIWAKELLTSIYFLMHEEVIEDENQHRVCFEHYPIQAWQRAINYYRFLVGFLFPICLLLASYQGILRAVRRSHGTQKSRKDQIQRLVLSTVVIFLACFLPYHVLLLVRSVWEASCDFAKGVFNAYHFSLLLTSFNCVADPVLYCFVSETTHRDLARLRGACLAFLTCSRTGRAREAYPLGAPEASGKSGAQGEEPELLTKLHPAFQTPNSPGSGGFPTGRLA [N39Y] | -1.13 | -0.767 | -0.871 | -0.951 | -2.12
MGNITADNSSMSCTIDHTIHQTLAPVVYVTVLVVGFPATCLSLYFGYLQIKARNELGVYLCNLTVADLFYICSLPFWLQYVLQHDNWSHGDLSCQVCGILLYENIYISVGFLCCISVDRYLAVAHPFRFHQFRTLKAAVGVSVVIWAKELLTSIYFLMHEEVIEDENQHRVCFEHYPIQAWQRAINYYRFLVGFLFPICLLLASYQGILRAVRRSHGTQKSRKDQIQRLVLSTVVIFLACFLPYHVLLLVRSVWEASCDFAKGVFNAYHFSLLLTSFNCVADPVLYCFVSETTHRDLARLRGACLAFLTCSRTGRAREAYPLGAPEASGKSGAQGEEPELLTKLHPAFQTPNSPGSGGFPTGRLA [N39T] | -1.13 | -0.761 | -1.11 | -0.554 | -1.11

Scores with a large standard error are left out. The source holds two more conditions with little spread; they are left out. Read del as a deletion of the residues named and ins as an insertion between two positions. For some assays here: How much ogerin was present is not stated here.
